Laboratory results reported in PubChem BioAssay AID493208 (National Center for Advancing Translational Sciences (NCATS), 2011).
The whole screen tested about 44,000 compounds, of which about 340 (0.77%) were called active. About 5% were inconclusive and are not listed. The call rests on the fitted dose curve; in most records, active means well fitted inhibition curve with a large enough effect; inconclusive means small, poorly fitted or top-dose-only effect; inactive means flat fitted curve, though single readings scatter. This is one part of the list.

Assay: Acumen qHTS Assay for Inhibitors of the mTORC1 Signaling Pathway in MEF (Tsc2-/-, p53-/-) Cells: Sytravon;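 further: plate controls were DMSO for no effect and rapamycin for full effect; nearly all actives have a fitted effect of over 50% in size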
Conditions: phospho-rpS6 immunofluorescence/PI, 24 h; series mostly up to 38.3 µM; activity change, negative = inhibition: at the top concentration
How it was run: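 Plate MEFs (Tsc2-/-, p53-/-, empty vector) in DMEM/10% FBS; after 24 h add compound, incubate 24 h at 37 degree Celsius; fix in PFA/TX-100, block, stain phospho-rpS6 and 10 uM PI; scan at 488 nm; report % positive cells.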

| Structure (SMILES) | activity change, negative = inhibition |
| --- | --- |
| COc1ccc(Cn2ccc3nc(C)c(C(=O)N4CCN(c5ccccc5F)CC4)cc3c2=O)cc1 | inactive: -23.8% |
| Cc1ccc(NC(=O)Cn2cc3c(n2)CCC(C)C3)cc1C (configuration not stated) | inactive: 0.341% |
| CCn1ccc2cc(S(=O)(=O)N3CCCN(C(=O)NCC(=O)OC)CC3)ccc21 | inactive: -8.03% |
| Cc1ccccc1C(=O)NC1(C(F)(F)F)N=C(c2ccccc2)N(Cc2ccccc2)C1=O (configuration not stated) | inactive: -1.6% |
| COc1cccc(-c2cc(C(F)(F)F)n3nc(C)c(-c4ccccc4)c3n2)c1 | inactive: 0.0919% |
| CCc1ccccc1N(C)C(=O)c1nn(C)c2c1CSc1ccccc1-2 | inactive: -7.65% |
| O=C(COc1ccccc1[N+](=O)[O-])Nc1cc(-c2nc3cc(Cl)ccc3o2)ccc1Cl | inactive: -0.128% |
| COC(=O)c1ccc(Oc2nc3c(c(=O)n(C)c(=O)n3C)n2C(C)C)cc1 | inactive: 4.14% |
| CCCCNC(=O)CSc1nc2cc3c(cc2c(=O)n1CCCCCC(=O)NCCc1ccc(OC)c(OC)c1)OCO3 | inactive: -7.55% |
| Cc1ccc2nc(N3CCC(C(=O)NCc4ccc(F)cc4)CC3)[nH]c2c1 | inactive: 7.8% |
| Cc1cc(C)c(S(=O)(=O)NCc2csc(-c3ccccc3)n2)c(C)c1 | inactive: 4.52% |
| Cc1ccc2nc(COc3cccc(NC(=O)c4cccc(Cl)c4)c3)cc(=O)n2c1 | inactive: 9.19% |
| CCC12CN3CC(C)(CN(C1)C3c1c[nH]c3ccc(OC)cc13)C2=O (configuration not stated) | inactive: -1.7% |
| Cc1ccc(OCC(=O)Nc2ccc3nc(SCC(=O)N4CCOCC4)sc3c2)cc1C | inactive: -0.618% |
| CCOC(=O)C1CCCN(C(=O)CCS(=O)(=O)c2cc3c(cc2Cl)NC(=O)CO3)C1 (configuration not stated) | inactive: -0.0328% |
| CCC(Sc1nc2cc3c(cc2c(=O)n1CCCC(=O)NCc1ccc(OC)cc1)OCO3)C(=O)NCCCOC (configuration not stated) | inactive: -1.04% |
| CCN(CC)C(=O)c1sc2c(c1C)c(=O)n(-c1ccc(C)c(C)c1)c(=O)n2Cc1cccc(Cl)c1 | inactive: -6.2% |
| Cc1ccc2cccc(NC(=O)c3ccc(C#N)cc3F)c2n1 | inactive: -10.5% |
| Cc1ccccc1NC(=O)Cn1c(=O)n(CCC(=O)NCc2ccc3c(c2)OCO3)c(=O)c2sccc21 | inactive: 1.76% |
| CC(=O)N1CCc2cc(CNS(=O)(=O)c3ccc(C(C)(C)C)cc3)ccc21 | inactive: 8.04% |
| O=C1CN(C(=O)c2ccc(S(=O)(=O)N3CCCCC3)cc2)C(c2ccc(F)cc2)c2cc(Br)ccc2N1 (configuration not stated) | inactive: -16.6% |
| COc1ccccc1OCCn1c(NC(=O)c2ccccc2)nc2ccccc21 | inactive: -6.18% |
| Cc1ccc(NC(=O)C2CCN(c3ncccn3)CC2)cc1F | inactive: -3.61% |
| CCOc1ccccc1NC(=O)C(C)n1nnc2sc3c(c2c1=O)CCCC3 (configuration not stated) | inactive: 2.42% |

| Structure (SMILES) | activity change, negative = inhibition |
| --- | --- |
| COc1cc(OC)c(NC(=O)Nc2sc3nc4n(c(=O)c3c2C)CCC(C)CC4)cc1Cl (configuration not stated) | inactive: -14.8% |
| Cc1ccc(-n2c(SCC(N)=O)nc3c(oc4ccccc43)c2=O)cc1 | inactive: -8.54% |
| O=C(COc1cccc(Cl)c1)N1CCC(c2nc3ccccc3s2)CC1 | inactive: -2.63% |
| CCn1c(CNC(=O)C23CC4CC(CC(C4)C2)C3)nnc1SCC(=O)Nc1ccc(OC)cc1 | inactive: -13.4% |
| O=C(O)c1cccc(NC(=O)c2cccc(S(=O)(=O)Nc3cccc(F)c3)c2)c1 | inactive: 7.94% |
| O=S(=O)(Nc1ccc(-c2ccc(N3CCCC3)nn2)cc1)c1ccccc1Cl | inactive: -7.8% |
| COc1cccc(C(=O)Nc2ccccc2SCc2cc(=O)c3cccc(C)c3[nH]2)c1 | inactive: 5.59% |
| Cc1ccc(N2CCN(c3nc4ccccc4n4nnnc34)CC2)c(C)c1 | inactive: 0.803% |
| Cc1cc(C)cc(NC(=O)c2cc(S(=O)(=O)N3CCOCC3)cn2C)c1 | inactive: 1.2% |
| N#Cc1c[nH]n2c(NC3CCCC3)c(-c3ccc(Br)cc3)nc12 | inactive: -3.2% |
| Cc1cc(C)c(NC(=O)Cn2nnc(-c3nc(-c4ccncc4)no3)c2N)c(C)c1 | inactive: -12.5% |
| Cc1cccc(-c2nnn3c2nc(NCCC(C)C)c2ccccc23)c1 | inactive: -1.88% |
| Cc1ccc(Nc2c(-c3ccc(N4CCOCC4)cc3)nc3ccc(Cl)cn23)cc1 | inactive: 3.04% |
| CCOc1ccc(C2c3c(oc4ccccc4c3=O)C(=O)N2Cc2ccc3c(c2)OCO3)cc1 (configuration not stated) | inactive: -12.5% |
| Cc1cc2c(cc1S(=O)(=O)N1CCC(C(N)=O)CC1)OCC(=O)N2 | inactive: 8.58% |
| CC(=O)c1ccc(NC(=O)/C=C/c2ccc(C)o2)cc1 | inactive: 0.112% |
| COc1cccc(C(=O)Nc2ccc(-c3nc4ccc(C)cc4s3)cc2)c1OC | inactive: 0.83% |
| COc1cn(CC(=O)Nc2ccc(C)cc2C)c(CN2CCCCC2)cc1=O | inactive: 0.184% |
| O=C(CSc1nc2c([nH]c3ccccc32)c(=O)n1-c1cccc(C(F)(F)F)c1)N1CCCC1 | inactive: 1.1% |
| CCOC(=O)c1cccc(NC(=O)C2(S(=O)(=O)c3ccc(C)cc3)CC2)c1 | inactive: 1.57% |
| CCOc1cccc(C2c3c(oc4ccc(F)cc4c3=O)C(=O)N2CCOC)c1 (configuration not stated) | inactive: 0.916% |
| CCCNC(=O)C1CCC(Cn2c(=O)c3sccc3n(CC(=O)N3CCCC(C)C3)c2=O)CC1 (configuration not stated) | inactive: -10.2% |
| CC(=O)C1=C(c2ccc(C)cc2)N(C(C)=O)n2c(nnc2-c2ccccc2)S1 | inactive: -4.15% |
